According to the antibiotic and cytotoxicity screens of Wong et al. (2023):
The list shows a part of the results.

Legend:
HSkMC = human skeletal muscle cells; assay: cytotoxicity call (relative viability < 0.9); settings: 10 µM
HepG2 = assay: cytotoxicity call (relative viability < 0.9); settings: 10 µM
S. aureus RN4220 = assay: growth inhibition call (relative growth <= 0.2); settings: 50 µM

CC(CCC(=O)O)C1CCC2C3CCC4CC(O)CCC4(C)C3CCC12C (stereo not given)
inactive: cytotoxicity call (HSkMC) | cytotoxicity call (HepG2) | growth inhibition call (S. aureus RN4220)

C[C@H]1CCCCO[C@@H](CN(C)S(=O)(=O)c2cccs2)[C@@H](C)CN([C@@H](C)CO)C(=O)c2cc(NS(=O)(=O)c3cn(C)cn3)ccc2O1
inactive: cytotoxicity call (HSkMC) | cytotoxicity call (HepG2) | growth inhibition call (S. aureus RN4220)

Cc1noc(C)c1NC(=O)N(C)C[C@@H]1OCCCC[C@H](C)Oc2ccc(NC(=O)Nc3ccccc3)cc2C(=O)N([C@@H](C)CO)C[C@H]1C
inactive: cytotoxicity call (HSkMC) | cytotoxicity call (HepG2) | growth inhibition call (S. aureus RN4220)

C[C@H](CO)N1C[C@H](C)[C@@H](CN(C)Cc2ccc3c(c2)OCO3)Oc2ccc(NC(=O)Cn3cnnn3)cc2CC1=O
inactive: cytotoxicity call (HSkMC) | cytotoxicity call (HepG2) | growth inhibition call (S. aureus RN4220)

C[C@@H]1CN([C@@H](C)CO)C(=O)c2cc(NC(=O)Nc3ccc4c(c3)OCO4)ccc2O[C@@H](C)CCCCO[C@H]1CN(C)C(=O)c1ccccc1
inactive: cytotoxicity call (HSkMC) | cytotoxicity call (HepG2) | growth inhibition call (S. aureus RN4220)

C[C@@H]1CN([C@@H](C)CO)C(=O)Cc2cc(NC(=O)C3CCCCC3)ccc2O[C@@H]1CN(C)S(=O)(=O)c1cn(C)cn1
inactive: cytotoxicity call (HSkMC) | cytotoxicity call (HepG2) | growth inhibition call (S. aureus RN4220)

C[C@H]1CN([C@@H](C)CO)C(=O)c2cc(NC(=O)Nc3ccc(F)cc3)ccc2O[C@H]1CN(C)S(=O)(=O)c1cn(C)cn1
inactive: cytotoxicity call (HSkMC) | cytotoxicity call (HepG2) | growth inhibition call (S. aureus RN4220)

CC(=O)O[C@@H]1C[C@@H]2CC[C@@]1(C)C2(C)C
inactive: cytotoxicity call (HSkMC) | cytotoxicity call (HepG2) | growth inhibition call (S. aureus RN4220)

C[C@H](CO)N1C[C@H](C)[C@@H](CN(C)S(C)(=O)=O)Oc2ccc(NS(=O)(=O)c3cccs3)cc2CC1=O
inactive: cytotoxicity call (HSkMC) | cytotoxicity call (HepG2) | growth inhibition call (S. aureus RN4220)

C[C@H]1CN([C@@H](C)CO)C(=O)c2cc(Br)cnc2O[C@H]1CN(C)Cc1ccc2c(c1)OCO2
inactive: cytotoxicity call (HSkMC) | cytotoxicity call (HepG2) | growth inhibition call (S. aureus RN4220)

CC(=O)N(C)C[C@H]1Oc2ncc(C#C[C@@H](C)O)cc2C(=O)N([C@@H](C)CO)C[C@H]1C
inactive: cytotoxicity call (HSkMC) | cytotoxicity call (HepG2) | growth inhibition call (S. aureus RN4220)

CCCNC(=O)[C@@]1(Sc2ccc(C)cc2)CC(=O)N(Cc2cc(C(F)(F)F)cc(C(F)(F)F)c2)[C@@H]1c1ccc(CO)cc1I
inactive: cytotoxicity call (HSkMC) | cytotoxicity call (HepG2) | growth inhibition call (S. aureus RN4220)

Cc1cc(C)c(C)c(C(=O)O)c1C
inactive: cytotoxicity call (HSkMC) | cytotoxicity call (HepG2) | growth inhibition call (S. aureus RN4220)

C[C@@H]1CCCCO[C@@H](CN(C)S(=O)(=O)c2cccs2)[C@H](C)CN([C@H](C)CO)C(=O)c2cc(NC(=O)CCC(F)(F)F)ccc2O1
inactive: cytotoxicity call (HSkMC) | cytotoxicity call (HepG2) | growth inhibition call (S. aureus RN4220)

COc1ccc(NC(=O)N(C)C[C@H]2Oc3ccc(NS(C)(=O)=O)cc3CC(=O)N([C@H](C)CO)C[C@@H]2C)cc1
inactive: cytotoxicity call (HSkMC) | cytotoxicity call (HepG2) | growth inhibition call (S. aureus RN4220)

C[C@H]1CCCCO[C@H](CN(C)C(=O)CCC(F)(F)F)[C@@H](C)CN([C@@H](C)CO)C(=O)c2cc(NC(=O)Nc3ccc4c(c3)OCO4)ccc2O1
inactive: cytotoxicity call (HSkMC) | cytotoxicity call (HepG2) | growth inhibition call (S. aureus RN4220)

COc1ccccc1C#Cc1ccc2c(c1)O[C@H](CN(C)Cc1ccncc1)[C@H](C)CN([C@@H](C)CO)S2(=O)=O
inactive: cytotoxicity call (HSkMC) | cytotoxicity call (HepG2) | growth inhibition call (S. aureus RN4220)

C[C@H]1CN([C@@H](C)CO)C(=O)Cc2cc(NC(=O)Cn3cnnn3)ccc2O[C@H]1CN(C)C(=O)Nc1ccc(C(F)(F)F)cc1
inactive: cytotoxicity call (HSkMC) | cytotoxicity call (HepG2) | growth inhibition call (S. aureus RN4220)

COc1ccc(CCNC(=O)[C@@]2(Sc3ccc(C)cc3)CC(=O)N(C3CCCCC3)[C@@H]2c2ccc(CO)cc2I)cc1
inactive: cytotoxicity call (HSkMC) | cytotoxicity call (HepG2) | growth inhibition call (S. aureus RN4220)

COc1ccc2c3c(n(c2c1)C)[C@@H](CO)N(Cc1ccccc1F)C[C@]13CN(C1)C(=O)C1CCOCC1
inactive: cytotoxicity call (HSkMC) | cytotoxicity call (HepG2) | growth inhibition call (S. aureus RN4220)

CO[C@H](CN(C)S(=O)(=O)c1ccc(Cl)cc1)[C@H](C)CN([C@H](C)CO)S(=O)(=O)c1cccc(Cl)c1
inactive: cytotoxicity call (HSkMC) | cytotoxicity call (HepG2) | growth inhibition call (S. aureus RN4220)

C[C@@H]1CN([C@@H](C)CO)C(=O)c2cc(C#CCc3ccccc3)cnc2O[C@H]1CN(C)C(=O)Cc1cccnc1
inactive: cytotoxicity call (HSkMC) | cytotoxicity call (HepG2) | growth inhibition call (S. aureus RN4220)

C[C@@H]1CN([C@H](C)CO)C(=O)c2cc(NC(=O)CCN3CCOCC3)ccc2O[C@@H]1CN(C)Cc1ccncc1
inactive: cytotoxicity call (HSkMC) | cytotoxicity call (HepG2) | growth inhibition call (S. aureus RN4220)

COc1cccc(S(=O)(=O)N2C[C@@H](O)COC[C@@H]3O[C@@H](CC(=O)N4CCN(c5ccccc5)CC4)CC[C@H]32)c1
inactive: cytotoxicity call (HSkMC) | cytotoxicity call (HepG2) | growth inhibition call (S. aureus RN4220)

COc1ccc(CN(C)C[C@H]2OCCCC[C@@H](C)Oc3ccc(NC(=O)c4ccncc4)cc3C(=O)N([C@@H](C)CO)C[C@H]2C)cc1
inactive: cytotoxicity call (HSkMC) | cytotoxicity call (HepG2) | growth inhibition call (S. aureus RN4220)
